# Measurements as given in PubChem BioAssay AID938 (National Center for Advancing Translational Sciences (NCATS), 2007).
# In all, about 73,000 compounds went through this assay and about 1,800 (2.5%) were called active. About 13% were inconclusive and are not listed. Calls follow the shape of the dose curve; as a rule, active = well fitted activation curve with a large enough effect; inconclusive = small, poorly fitted or top-dose-only effect; inactive = no such curve, though single readings can be large or run the other way. This is a selection; strong and weak results do not stand in their true shares. Some compounds were tested as several samples or in several runs, with calls that do not always agree.
# Test: qHTS Assay for Agonists of the Thyroid Stimulating Hormone Receptor: Activators of Intracellular cAMP Concentrations in Parental HEK 293; also: nearly all actives have a fitted effect of over 55% in size; as to activation: % of control where 0% means no effect
# Details: parental HEK293 CNG cAMP sensor, membrane potential fluorescence; series mostly up to 57.1 µM; activation: at the top concentration
# Summary of the method: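 Counterscreen for endogenous-receptor signalling: CNG-channel HEK 293 cells report cAMP rise by membrane depolarization. After 60 min dye equilibration with 100 uM RO 20-1724, compounds incubated 30 min before bottom-read fluorescence at 590 nm.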
# Potency is read from the fitted curve at half-maximal effect.
SMILES,activation,Potency
O=[N+]([O-])c1cccc(CCl)c1,inactive: -31.7%,–
Cc1ccc([N+](=O)[O-])cc1N,inactive: -16.8%,–
CCN(CC)CCO,inactive: -47.9%,–
Clc1ccc(C(Cl)(Cl)Cl)c(Cl)c1,inactive: 52.3%,–
CN1CCN(C(=O)O[C@@H]2c3nccnc3C(=O)N2c2ccc(Cl)cn2)CC1,inactive: 4.85%,–
C[N+](C)(C)CC#CCN1CCCC1=O,inactive: 10.6%,–
Nc1ccc(Sc2ccc(N)cc2)cc1,inactive: 13.4%,–
Clc1ccccc1Cl,inactive: -44.7%,–
O=C(O)C(Cl)(Cl)Cl,–,inactive
CCCCCl,inactive: 11.1%,–
CC[C@@H](CO)NC(=O)[C@H]1C=C2c3cccc4[nH]cc(c34)C[C@H]2N(C)C1,inactive: -1.2%,–
CC(C)CCNC(=O)c1c(N)n(CC2CCCO2)c2nc3ccccc3nc12 (configuration not stated),inactive: -49.9%,–
C=CC(=O)OCC(C)C,inactive: -1.33%,–
O=C(O)CCCc1ccc(N(CCCl)CCCl)cc1,–,inactive
CN1C(=O)CCS(=O)(=O)[C@H]1c1ccc(Cl)cc1,inactive: 2.34%,–
CCCCOC(=O)c1ccccc1C(=O)OCc1ccccc1,–,active: 15.8 µM
c1nc[nH]n1,inactive: -16.1%,–
CCOC(=O)c1ccccc1C(=O)OCC,inactive: 14.1%,–
NC(N)=NOCC[C@H](N)C(=O)O,–,inactive
CCCCC#N,inactive: 8.65%,–
CN1CCc2cc3c(cc2[C@@H]1[C@@H]1OC(=O)c2c1ccc1c2OCO1)OCO3,–,inactive
C=C[C@@H]1CN2CC[C@H]1C[C@H]2[C@H](O)c1ccnc2ccccc12,inactive: -6.49% [at 11.4 µM],–

SMILES,activation,Potency
O=[N+]([O-])c1c(Cl)c(Cl)cc(Cl)c1Cl,inactive: 7.7%,–
OC1(c2ccc(Cl)cc2)CCN(Cc2c[nH]c3ccccc23)CC1,inactive: 24.5%,–
CCN1C(=O)/C(=C2\C=Cc3ccccc3N2CC)OC1=S,inactive: -65.6%,–
CC(C)(C)OOC(C)(C)C,inactive: 30.3%,–
OC(c1ccc(Cl)cc1)(c1ccc(Cl)cc1)C(Cl)(Cl)Cl,inactive: -7.02%,–
O=[N+]([O-])c1ccccc1CCl,inactive: 18.3%,–
CC(C)c1ccc2c(c1)CC[C@H]1[C@](C)(CN)CCC[C@]21C,inactive: -55.3%,–
C/C(O)=C(/C#N)C(=O)Nc1cc(Br)ccc1Br,inactive: 26.7%,–
Cc1cccc(N2CCc3c2nc2ccccc2c3N)c1,–,inactive
c1cc2n(c1)-c1c(ccc3c1OCO3)CNC2c1ccc2c(c1)OCO2 (configuration not stated),inactive: -42.6%,–
c1ccc2cc3c(cc2c1)-c1cccc2cccc-3c12,inactive: 9.08%,–
CCOP(=O)(OCC)OCC,inactive: -25.6%,–
Cc1cc(-c2ccc(N)c(C)c2)ccc1N,inactive: -24.7%,–
CSc1nc2ccccc2n1C(=O)Oc1ccccc1,–,active: 25.1 µM
CC(C)C#N,inactive: -4.61%,–
CN(C)C(=O)Nc1ccc(Cl)cc1,inactive: -19.8%,–
NCc1cc(=O)[nH]o1,inactive: 3.31%,–
CCCN(CCC)[C@@H]1CCc2cccc(O)c2C1,–,inactive
CCN(CC)N=O,inactive: -19.6%,–
ClC=C(Cl)Cl,inactive: -20.6%,–
CCCCC(CC)COC(=O)CCCCC(=O)OCC(CC)CCCC (configuration not stated),inactive: -21.7%,–
CC(C)NC[C@@H](O)COc1cccc2[nH]ccc12,–,inactive

SMILES,activation,Potency
NCCc1c[nH]c2ccc(O)cc12,inactive: -4.88% [at 25.6 µM],–
O=c1[nH]cc(F)c(=O)[nH]1,inactive: 2.22%,–
CCOCCOC(C)=O,inactive: 1.39%,–
[N-]=[N+]=[N-],inactive: -3.35%,–
COc1ccc(CNC(=O)/C=C\c2ccc3[nH]cc(CCN(C)C)c3c2)cc1,inactive: 18.2%,–
CN=C(NC#N)NCCSCc1nc[nH]c1C,–,inactive
Cc1cccc(C)c1NC1=NCCCS1,–,inactive
C=CC(N)=O,inactive: 10.7%,–
Nc1ccccc1,inactive: 33.1%,–
Nc1ccc(-c2ccc(N)c(Cl)c2)cc1Cl,inactive: -38.3%,–
CN1CCN(C(=O)OC2c3nccnc3C(=O)N2c2ccc(Cl)cn2)CC1 (configuration not stated),inactive: 1.83%,–
Nc1cc(Cl)ccc1Cl,inactive: 0.0527%,–
c1ccccc1,inactive: 12.5%,–
C[C@]12CC[C@H](O)C[C@@H]1CC[C@H]1[C@H]2CC[C@]2(C)[C@H](C(=O)CO)CC[C@@H]12,inactive: 3.98%,–
COS(C)(=O)=O,inactive: -27.8%,–
CC[N+](C)(C)c1cccc(O)c1,inactive: -3.61% [at 25.6 µM],–
CC12CCC(=O)C=C1CCC1C2CCC2(C)C(O)CCC12 (configuration not stated),inactive: 5.22%,–
C=CCO,inactive: -2.58%,–
c1ccc2c(c1)[I+]c1ccccc1-2,inactive: 20.4%,–
O=C(c1cc2ccccn2n1)N1CCN(Cc2ccccc2)CC1,inactive: -40.9%,–
CC(Cl)(Cl)Cl,inactive: -17.3%,–
N#CCCCl,–,inactive

SMILES,activation,Potency
CC(=O)NNc1ccccc1,inactive: 25.1%,–
COc1ccc2c(c1)C13CCCC[C@@H]1C(C2)N(C)CC3 (some centres not stated),inactive: 9.94% [at 25.6 µM],–
CC1(C)Cc2c(sc3c2C(=O)NC(c2cccnc2)N3)CO1 (configuration not stated),inactive: -33.3%,–
CC[C@]1(C2=NCCN2)Cc2ccccc2O1,inactive: 18.9%,–
Fc1ccc(C(OCCN2CCN(CCCc3ccccc3)CC2)c2ccc(F)cc2)cc1,–,inactive
Cc1c(OCC(F)(F)F)ccnc1CS(=O)c1nc2ccccc2[nH]1 (configuration not stated),inactive: 6.36% [at 25.6 µM],–
CC(C)(C)n1c(O)c(C=Nc2ccc3c(c2)CCC3)c(=O)[nH]c1=O,–,active: 25.1 µM
COc1cc2c(cc1OC)[C@H](C)NCC2,inactive: -2.39%,–
NNC(N)=O,inactive: -20.7%,–
COc1ccc(Cc2nccc3cc(OC)c(OC)cc23)cc1OC,inactive: 22% [at 25.6 µM],–
Nc1ccc(Cl)c(Cl)c1,inactive: -3.24%,–
Cc1cccc(CN(C)C)c1OC(=O)N(C)C,inactive: -54.7%,–
C[C@]12N[C@H](Cc3ccccc31)c1ccccc12,inactive: 11.5%,–
O[C@@H]1CCCC[C@H]1N1CCC(c2ccccc2)CC1,–,inactive
CNC(=O)O/N=C/C(C)(C)S(C)=O (configuration not stated),inactive: -28.3%,–
CSSC,inactive: 8.52%,–
C=CC(=O)OCC(CC)CCCC (configuration not stated),inactive: 2.16%,–
CN(C)c1ccc(N=Nc2ccccc2)cc1,inactive: -27%,–
Cc1coc2c1CCC(C)C2 (configuration not stated),inactive: -5.99%,–
Oc1ccc2c3c1O[C@H]1c4c(c5ccccc5n4Cc4ccccc4)C[C@]4(O)[C@H](C2)N(CC2CC2)CC[C@@]314,inactive: -32.2%,–
N[C@H](CCCCCP(=O)(O)O)C(=O)O,–,inactive
